Measurements as given in publication PMC5836133.
Some of the results follow. At the low end of the ranking, values are background and their order means little.
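Note: rank-based score ranging −0.5 to +0.5 with E above 0.45 taken as significant binding.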

Each sequence was assayed on T1, GST-NbGlk1(82-244) (assay: protein-binding microarray). Details: NbGlk1 is a Golden2-like transcription factor of Nicotiana benthamiana; high values mean tight binding; most listed sequences are background and not binding sites; double strand, one strand shown.
T1 sequence: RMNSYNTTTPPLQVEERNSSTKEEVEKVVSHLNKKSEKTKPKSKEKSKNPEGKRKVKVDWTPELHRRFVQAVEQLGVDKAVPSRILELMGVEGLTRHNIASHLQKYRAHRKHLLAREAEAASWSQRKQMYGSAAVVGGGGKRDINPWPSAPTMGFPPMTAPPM
AGGGCGAG showed a binding signal of -0.155 E-score. For AGACTGAT, the binding signal was 0.0553 E-score. Sequence CAAGGACA has a binding signal of -0.14 E-score. AAACGAAT showed a binding signal of 0.162 E-score. AGGGCGCC showed a binding signal of -0.26 E-score. For AACACCAG, the binding signal was -0.269 E-score. With CAACACCG the binding signal was -0.0516 E-score. AGTCTGCC gave a binding signal of -0.367 E-score. Sequence AACAGAAG has a binding signal of 0.0291 E-score. In the case of CAGAGCAG, the binding signal is reported as -0.226 E-score. With AATGAGCT the binding signal was -0.243 E-score. For AAGCCCGA, the binding signal was -0.215 E-score. Work on AACGTGGC yielded a binding signal of -0.202 E-score. AACCACGA showed a binding signal of 0.0162 E-score. AGCGCACA gave a binding signal of -0.118 E-score. For AGGAGGTC, the binding signal was -0.289 E-score. In the case of ACCTGTTA, the binding signal is reported as -0.0444 E-score. ATGAGTCC gave a binding signal of -0.255 E-score. ATTTTCTG was tested, and the binding signal was 0.324 E-score. With AGGCCATG the binding signal was -0.189 E-score. Sequence AGATATTA has a binding signal of 0.379 E-score. In the case of AATGTTCC, the binding signal is reported as -0.0591 E-score. ATCAGGGG showed a binding signal of 0.111 E-score. With ACCTTCGA the binding signal was -0.204 E-score. AGACTTCG gave a binding signal of -0.156 E-score. For AACATGAT, the binding signal was 0.126 E-score. For ATATTCTG, the binding signal was 0.342 E-score. Sequence AACATAAA has a binding signal of 0.0848 E-score. Sequence ATATACTG has a binding signal of 0.253 E-score. AAGGCAAG was tested, and the binding signal was -0.153 E-score. AAGTTAAG was tested, and the binding signal was -0.216 E-score. AATCATTA gave a binding signal of 0.201 E-score. Sequence AACCTATT has a binding signal of 0.0255 E-score. In the case of ACGCTGTA, the binding signal is reported as -0.149 E-score. AAGGCAGG gave a binding signal of -0.181 E-score. Work on ATTGTCCG yielded a binding signal of 0.119 E-score. ATCTTCAA showed a binding signal of 0.303 E-score. In the case of ACTATTCT, the binding signal is reported as 0.0057 E-score. With ATGAAACA the binding signal was 0.106 E-score. ATTCAGAC showed a binding signal of 0.0229 E-score. Sequence ATTCGGGC has a binding signal of 0.188 E-score. Sequence AGCTTTGG has a binding signal of -0.221 E-score. ATATTCAC showed a binding signal of 0.208 E-score. CAGAGCCC gave a binding signal of -0.266 E-score. Work on ATACGTGC yielded a binding signal of 0.2 E-score. ACCCGCGA was tested, and the binding signal was -0.0675 E-score. For CACCCGCC, the binding signal was -0.173 E-score. Sequence AGTGAACA has a binding signal of -0.0625 E-score. For AGCATAAG, the binding signal was -0.232 E-score. Sequence AAAATGCT has a binding signal of -0.0406 E-score. For AGCACGGG, the binding signal was -0.141 E-score. For AATCGTAA, the binding signal was 0.369 E-score. For CACCGACA, the binding signal was -0.124 E-score. With ACCTCTCA the binding signal was -0.229 E-score. In the case of ATTGGTTA, the binding signal is reported as 0.0759 E-score. ATCCGATC gave a binding signal of 0.286 E-score. AGATACAT showed a binding signal of 0.119 E-score. CACCAACC was tested, and the binding signal was -0.194 E-score. Sequence CACCTATA has a binding signal of 0.0797 E-score. AACACAGC gave a binding signal of -0.0633 E-score. In the case of AGAGGTCA, the binding signal is reported as -0.309 E-score. ACATAGCG gave a binding signal of -0.00778 E-score. Sequence ATCGAACG has a binding signal of 0.0812 E-score. AAGAGTCC was tested, and the binding signal was -0.25 E-score. Work on AGGCTTCG yielded a binding signal of -0.245 E-score. In the case of ATTACAAG, the binding signal is reported as 0.219 E-score. AACTCGTG showed a binding signal of -0.152 E-score. In the case of AGTATGAT, the binding signal is reported as 0.162 E-score. For AGAAGACT, the binding signal was -0.172 E-score. AGTGTCAT showed a binding signal of -0.157 E-score. For ACCTAAGG, the binding signal was -0.11 E-score. Work on ACCGAAGC yielded a binding signal of -0.144 E-score. AAGACCTG gave a binding signal of -0.122 E-score. Work on ATTGGGTA yielded a binding signal of 0.0391 E-score. In the case of AAGCAGCT, the binding signal is reported as -0.25 E-score. ATGAACAT was tested, and the binding signal was -0.0879 E-score. AGAAGACG showed a binding signal of -0.0835 E-score. For ACAAATTC, the binding signal was 0.18 E-score. In the case of ACTGTTTC, the binding signal is reported as -0.121 E-score. Work on ATAGTAGC yielded a binding signal of -0.0696 E-score. Work on ATTCCGAG yielded a binding signal of 0.275 E-score. For AATGGAGT, the binding signal was -0.016 E-score. Work on ACTAGTGC yielded a binding signal of -0.129 E-score. CACTGGTC showed a binding signal of -0.278 E-score. In the case of ATCTGGTG, the binding signal is reported as 0.333 E-score. Work on ACCTATGA yielded a binding signal of -0.0891 E-score.
